In patent US20020058020A1, “Isolated amphiphilic peptides derived from the cytoplasmic tail of viral envelope proteins” (priority 1999, published 2002):

Test: Planar lipid bilayer integrity assay (current induction across voltage-clamped membrane)
Details: 3 μM peptide, membrane at +50 mV

## ILNRLVQFVKDRISVVQAL (Moloney murine sarcoma virus) [Peptide 598-616]
  planar membrane destabilizing activity (in words): causes increase in a non-selective planar membrane conductance that leads to membrane rupture
